# Measurements from the supplement of paper PMC8728848.
# The other results are listed elsewhere or left out.
# Tests used:
# Assay in all cases: glycan array binding signal (z-score within array); higher = stronger binding
# Settings in all cases: glycan notation: IUPAC condensed, linker removed
# [1] = target: Fuc(a1-2)Gal
# Summary of the method: (§1)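 The binding signal is a Z-score computed within each array and averaged over linkers. Arrays of the same protein sequence at different concentrations or buffers were also averaged together. Data originate from 3228 arrays in the Consortium for Functional Glycomics database, kept only where the protein sequence was available.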
# [2] = target: Fuc(a1-2)Gal(b1-3)GalNAc
# Summary of the method: as §1
# [3] = target: Fuc(a1-2)Gal(b1-3)GalNAc(b1-3)Gal
# Summary of the method: as §1
# [4] = target: Fuc(a1-2)Gal(b1-3)GalNAc(b1-3)Gal(a1-4)Gal(b1-4)Glc
# Summary of the method: as §1
# [5] = target: Fuc(a1-2)Gal(b1-3)GalNAc(b1-4)[Neu5Ac(a2-3)]Gal(b1-4)Glc
# Summary of the method: as §1
# [6] = target: Fuc(a1-2)Gal(b1-3)GlcNAc
# Summary of the method: as §1
# [7] = target: Fuc(a1-2)Gal(b1-3)GlcNAc(b1-3)Gal(b1-4)Glc
# Summary of the method: as §1
# [8] = target: Fuc(a1-2)Gal(b1-3)[Fuc(a1-4)]GlcNAc
# Summary of the method: as §1
# [9] = target: Fuc(a1-2)Gal(b1-4)Glc
# Summary of the method: as §1
# [10] = target: Fuc(a1-2)Gal(b1-4)Glc6S
# Summary of the method: as §1
# [11] = target: Fuc(a1-2)Gal(b1-4)GlcNAc
# Summary of the method: as §1
# [12] = target: Fuc(a1-2)Gal(b1-4)GlcNAc(b1-3)Gal(b1-4)GlcNAc
# Summary of the method: as §1
# [13] = target: Fuc(a1-2)Gal(b1-4)GlcNAc(b1-3)Gal(b1-4)GlcNAc(b1-3)Gal(b1-4)GlcNAc
# Summary of the method: as §1
# [14] = target: Fuc(a1-2)Gal(b1-4)GlcNAc6S
# Summary of the method: as §1
# [15] = target: Fuc(a1-2)Gal(b1-4)[Fuc(a1-3)]GlcNAc
# Summary of the method: as §1
# [16] = target: Fuc(a1-2)Gal(b1-4)[Fuc(a1-3)]GlcNAc(b1-3)Gal(b1-4)[Fuc(a1-3)]GlcNAc
# Summary of the method: as §1
# [17] = target: Fuc(a1-2)Gal(b1-4)[Fuc(a1-3)]GlcNAc(b1-3)Gal(b1-4)[Fuc(a1-3)]GlcNAc(b1-3)Gal(b1-4)[Fuc(a1-3)]GlcNAc
# Summary of the method: as §1
# [18] = target: Fuc(a1-2)Gal6S(b1-4)Glc
# Summary of the method: as §1
# [19] = target: Fuc(a1-2)Gal6S(b1-4)Glc6S
# Summary of the method: as §1
# [20] = target: Fuc(a1-2)Gal6S(b1-4)GlcNAc
# Summary of the method: as §1
# [21] = target: Fuc(a1-2)[Gal(a1-3)]Gal
# Summary of the method: as §1
# [22] = target: Fuc(a1-2)[Gal(a1-3)]Gal(b1-3)GlcNAc
# Summary of the method: as §1
# [23] = target: Fuc(a1-2)[Gal(a1-3)]Gal(b1-4)Glc
# Summary of the method: as §1
# [24] = target: Fuc(a1-2)[Gal(a1-3)]Gal(b1-4)GlcNAc
# Summary of the method: as §1
# [25] = target: Fuc(a1-2)[Gal(a1-3)]Gal(b1-4)[Fuc(a1-3)]GlcNAc
# Summary of the method: as §1
# [26] = target: Fuc(a1-2)[Gal(a1-4)]Gal(b1-4)GlcNAc
# Summary of the method: as §1
# [27] = target: Fuc(a1-2)[GalNAc(a1-3)]Gal
# Summary of the method: as §1
# [28] = target: Fuc(a1-2)[GalNAc(a1-3)]Gal(b1-3)GlcNAc
# Summary of the method: as §1
# [29] = target: Fuc(a1-2)[GalNAc(a1-3)]Gal(b1-4)Glc
# Summary of the method: as §1
# [30] = target: Fuc(a1-2)[GalNAc(a1-3)]Gal(b1-4)GlcNAc
# Summary of the method: as §1
# [31] = target: Fuc(a1-2)[GalNAc(a1-3)]Gal(b1-4)[Fuc(a1-3)]GlcNAc
# Summary of the method: as §1
# [32] = target: Fuc(a1-2)[GalNAc(a1-4)]Gal(b1-4)GlcNAc
# Summary of the method: as §1
# [33] = target: Fuc(a1-2)[GalNAc(b1-3)]Gal
# Summary of the method: as §1
# [34] = target: Fuc(a1-3)GlcNAc
# Summary of the method: as §1
# [35] = target: Fuc(a1-3)[Gal(b1-4)]Glc6S
# Summary of the method: as §1
# [36] = target: Fuc(a1-3)[Gal(b1-4)]GlcNAc
# Summary of the method: as §1
# [37] = target: Fuc(a1-3)[Gal(b1-4)]GlcNAc(b1-2)Man(a1-3)[Fuc(a1-3)[Gal(b1-4)]GlcNAc(b1-2)Man(a1-6)]Man(b1-4)GlcNAc(b1-4)GlcNAc
# Summary of the method: as §1
# [38] = target: Fuc(a1-3)[Gal(b1-4)]GlcNAc(b1-2)Man(a1-6)[Gal(b1-4)GlcNAc(b1-2)Man(a1-3)]Man(b1-4)GlcNAc(b1-4)GlcNAc
# Summary of the method: as §1
# [39] = target: Fuc(a1-3)[Gal(b1-4)]GlcNAc(b1-3)Gal(b1-3)[Fuc(a1-4)]GlcNAc
# Summary of the method: as §1
# [40] = target: Fuc(a1-3)[Gal(b1-4)]GlcNAc(b1-4)Gal(b1-4)[Fuc(a1-3)]GlcNAc
# Summary of the method: as §1
# [41] = target: Fuc(a1-3)[Gal(b1-4)]GlcNAc(b1-4)Gal(b1-4)[Fuc(a1-3)]GlcNAc(b1-4)Gal(b1-4)[Fuc(a1-3)]GlcNAc
# Summary of the method: as §1
# [42] = target: Fuc(a1-3)[Gal(b1-4)]GlcNAc6S
# Summary of the method: as §1
# [43] = target: Fuc(a1-3)[Gal3S(b1-4)]Glc6S
# Summary of the method: as §1
# [44] = target: Fuc(a1-3)[Gal3S(b1-4)]GlcNAc
# Summary of the method: as §1
# [45] = target: Fuc(a1-3)[Gal3S(b1-4)]GlcNAc6S
# Summary of the method: as §1
binder,measurement,setting,value
BDCA2 ex-domain (Homo sapiens) (protein) MASHHHHHHIEGRGLNDIFEAQKIEWHESLVPRGSCPTPWTSFQSSCYFISTGMQSWTKSQKNCSVMGADLVVINTREEQDFIIQNLKRNSSYFLGLSDPGGRRHWQWVDQTPYNENVTFWHSGEPNNLDERCAIINFRSSEEWGWNDIHCHVPQKSICKMKKIY,glycan array binding signal (z-score),[1],0.241
same,glycan array binding signal (z-score),[2],-0.189
same,glycan array binding signal (z-score),[3],-0.165
same,glycan array binding signal (z-score),[4],-0.148
same,glycan array binding signal (z-score),[5],0.03
same,glycan array binding signal (z-score),[6],0.024
same,glycan array binding signal (z-score),[7],-0.14
same,glycan array binding signal (z-score),[8],-0.238
same,glycan array binding signal (z-score),[9],-0.318
same,glycan array binding signal (z-score),[10],0.257
same,glycan array binding signal (z-score),[11],0.418
same,glycan array binding signal (z-score),[12],0.294
same,glycan array binding signal (z-score),[13],0.207
same,glycan array binding signal (z-score),[14],0.828
same,glycan array binding signal (z-score),[15],-0.182
same,glycan array binding signal (z-score),[16],-0.368
same,glycan array binding signal (z-score),[17],-0.266
same,glycan array binding signal (z-score),[18],-0.201
same,glycan array binding signal (z-score),[19],-0.249
same,glycan array binding signal (z-score),[20],-0.244
same,glycan array binding signal (z-score),[21],0.352
same,glycan array binding signal (z-score),[22],-0.203
same,glycan array binding signal (z-score),[23],-0.022
same,glycan array binding signal (z-score),[24],-0.341
same,glycan array binding signal (z-score),[25],-0.36
same,glycan array binding signal (z-score),[26],-0.297
same,glycan array binding signal (z-score),[27],-0.21
same,glycan array binding signal (z-score),[28],-0.115
same,glycan array binding signal (z-score),[29],-0.119
same,glycan array binding signal (z-score),[30],-0.032
same,glycan array binding signal (z-score),[31],-0.146
same,glycan array binding signal (z-score),[32],-0.142
same,glycan array binding signal (z-score),[33],0.726
same,glycan array binding signal (z-score),[34],-0.3
same,glycan array binding signal (z-score),[35],0.201
same,glycan array binding signal (z-score),[36],0.182
same,glycan array binding signal (z-score),[37],-0.379
same,glycan array binding signal (z-score),[38],0.296
same,glycan array binding signal (z-score),[39],-0.04
same,glycan array binding signal (z-score),[40],-0.642
same,glycan array binding signal (z-score),[41],-0.226
same,glycan array binding signal (z-score),[42],-0.249
same,glycan array binding signal (z-score),[43],0.52
same,glycan array binding signal (z-score),[44],-0.204
same,glycan array binding signal (z-score),[45],1.05
